The supplement of paper PMC8728848
The list shows a part of the results.

What was measured:
Test in all cases: glycan array binding signal (z-score within array); higher = stronger binding
Details in all cases: glycan notation: IUPAC condensed, linker removed
Gal3S(b1-4)Glc = target: Gal3S(b1-4)Glc
How it was run: (§1)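 Columns mapping to the same glycan were averaged after glycan names were converted to IUPAC-condensed notation. The data come from 3228 arrays in the Consortium for Functional Glycomics database, limited to those with an available protein sequence. Binding is reported as a within-array Z-score averaged across arrays of one protein sequence and across linkers.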

Gal3S(b1-4)Glc6S = target: Gal3S(b1-4)Glc6S
How it was run: as §1

Gal3S(b1-4)GlcNAc = target: Gal3S(b1-4)GlcNAc
How it was run: as §1

[1] = target: Gal3S(b1-4)[Fuc(a1-3)]Glc6S
How it was run: as §1

[2] = target: Gal3S(b1-4)[Fuc(a1-3)]GlcNAc
How it was run: as §1

[3] = target: Gal3S(b1-4)[Fuc(a1-3)]GlcNAc6S
How it was run: as §1

Gal3S4S(b1-4)GlcNAc = target: Gal3S4S(b1-4)GlcNAc
How it was run: as §1

Gal3S6S(b1-4)GlcNAc = target: Gal3S6S(b1-4)GlcNAc
How it was run: as §1

Gal3S6S(b1-4)GlcNAc6S = target: Gal3S6S(b1-4)GlcNAc6S
How it was run: as §1

Gal4S(b1-4)GlcNAc = target: Gal4S(b1-4)GlcNAc
How it was run: as §1

Gal4S6S(b1-4)GlcNAc = target: Gal4S6S(b1-4)GlcNAc
How it was run: as §1

Gal6P(b1-4)GlcNAc = target: Gal6P(b1-4)GlcNAc
How it was run: as §1

Gal6S(b1-3)GlcNAc = target: Gal6S(b1-3)GlcNAc
How it was run: as §1

Gal6S(b1-3)GlcNAc6S = target: Gal6S(b1-3)GlcNAc6S
How it was run: as §1

Gal6S(b1-4)Glc = target: Gal6S(b1-4)Glc
How it was run: as §1

Gal6S(b1-4)Glc6S = target: Gal6S(b1-4)Glc6S
How it was run: as §1

Gal6S(b1-4)GlcNAc = target: Gal6S(b1-4)GlcNAc
How it was run: as §1

Gal6S(b1-4)GlcNAc6S = target: Gal6S(b1-4)GlcNAc6S
How it was run: as §1

GalNAc(a1-3)Gal = target: GalNAc(a1-3)Gal
How it was run: as §1

GalNAc(a1-3)GalNAc = target: GalNAc(a1-3)GalNAc
How it was run: as §1

[4] = target: GalNAc(a1-3)GalNAc(b1-3)Gal(a1-4)Gal(b1-4)Glc
How it was run: as §1

[5] = target: GalNAc(a1-3)GalNAc(b1-3)Gal(a1-4)Gal(b1-4)GlcNAc
How it was run: as §1

GalNAc(b1-3)Gal = target: GalNAc(b1-3)Gal
How it was run: as §1

[6] = target: GalNAc(b1-3)Gal(a1-4)Gal(b1-4)GlcNAc
How it was run: as §1

[7] = target: GalNAc(b1-3)Gal(a1-4)Gal(b1-4)GlcNAc(b1-3)Gal(b1-4)Glc
How it was run: as §1

[8] = target: GalNAc(b1-3)Gal(a1-6)Gal(b1-4)Glc
How it was run: as §1

GalNAc(b1-3)GalNAc = target: GalNAc(b1-3)GalNAc
How it was run: as §1

GalNAc(b1-3)GlcNAc = target: GalNAc(b1-3)GlcNAc
How it was run: as §1

GalNAc(b1-4)Gal(b1-4)Glc = target: GalNAc(b1-4)Gal(b1-4)Glc
How it was run: as §1

GalNAc(b1-4)GlcNAc = target: GalNAc(b1-4)GlcNAc
How it was run: as §1

[9] = target: GalNAc(b1-4)GlcNAc(b1-2)Man
How it was run: as §1

[10] = target: GalNAc(b1-4)GlcNAc(b1-2)Man(a1-3)[GalNAc(b1-4)GlcNAc(b1-2)Man(a1-6)]Man(b1-4)GlcNAc(b1-4)GlcNAc
How it was run: as §1

[11] = target: GalNAc(b1-4)GlcNAc(b1-3)GalNAc(b1-4)GlcNAc
How it was run: as §1

GalNAc(b1-4)GlcNAc6S = target: GalNAc(b1-4)GlcNAc6S
How it was run: as §1

GalNAc(b1-6)GalNAc = target: GalNAc(b1-6)GalNAc
How it was run: as §1

GalNAc3S(b1-4)GlcNAc = target: GalNAc3S(b1-4)GlcNAc
How it was run: as §1

GalNAc3S(b1-4)GlcNAc3S = target: GalNAc3S(b1-4)GlcNAc3S
How it was run: as §1

B1: Na-CTL-1 (Necator americanus) (protein)
chain: MQRSFLLLLVVLAGAWAVNTTIPLKLMGGFTPMKYQCVGRVSDIWADVLFLIESSDMITKSGFRQVIAFITATTKKMTIGQDEKQTRVGFITYGEEAKLIYDLDHWRSTEKLSDLVQKIPYVKSSGTNIAAAIALANKVFNSPTHRPNVPKVMVIVANGLKKGSQNPIPVATAFKDFGGIIITIEYTQYDNIQVPILKKIASEGYNIRSNDEDFSVRTLTNMLLQANCFCPDHYVPFRVNNPEFGCFVTAKIPSMWRDAAEMCRAVEEGKLVKVENEEKAAFIMKLVGPKKEAWIGLRYYGNKFQWTDGTKLNADDFNLWPEDIKELNGPHCVSMYQDQKDKKYYWRAGKCLEDMRYVCEVQPCSASNYCSEPVFMYRQKHRALLPAPPPPPN
glycan array binding signal (z-score) (Gal3S(b1-4)Glc): 0.021
glycan array binding signal (z-score) (Gal3S(b1-4)Glc6S): 0.514
glycan array binding signal (z-score) (Gal3S(b1-4)GlcNAc): 0.593
glycan array binding signal (z-score) [1]: 0.797
glycan array binding signal (z-score) [2]: 0.136
glycan array binding signal (z-score) [3]: 0.931
glycan array binding signal (z-score) (Gal3S4S(b1-4)GlcNAc): -0.537
glycan array binding signal (z-score) (Gal3S6S(b1-4)GlcNAc): 0.472
glycan array binding signal (z-score) (Gal3S6S(b1-4)GlcNAc6S): 0.998
glycan array binding signal (z-score) (Gal4S(b1-4)GlcNAc): -0.434
glycan array binding signal (z-score) (Gal4S6S(b1-4)GlcNAc): 0.292
glycan array binding signal (z-score) (Gal6P(b1-4)GlcNAc): 0.128
glycan array binding signal (z-score) (Gal6S(b1-3)GlcNAc): 0.848
glycan array binding signal (z-score) (Gal6S(b1-3)GlcNAc6S): -0.291
glycan array binding signal (z-score) (Gal6S(b1-4)Glc): 0.755
glycan array binding signal (z-score) (Gal6S(b1-4)Glc6S): 0.075
glycan array binding signal (z-score) (Gal6S(b1-4)GlcNAc): 0.607
glycan array binding signal (z-score) (Gal6S(b1-4)GlcNAc6S): -0.321
glycan array binding signal (z-score) (GalNAc(a1-3)Gal): -0.696
glycan array binding signal (z-score) (GalNAc(a1-3)GalNAc): 0.002
glycan array binding signal (z-score) [4]: -0.099
glycan array binding signal (z-score) [5]: -0.25
glycan array binding signal (z-score) (GalNAc(b1-3)Gal): -0.036
glycan array binding signal (z-score) [6]: 0.987
glycan array binding signal (z-score) [7]: -0.168
glycan array binding signal (z-score) [8]: -0.388
glycan array binding signal (z-score) (GalNAc(b1-3)GalNAc): -0.358
glycan array binding signal (z-score) (GalNAc(b1-3)GlcNAc): -0.615
glycan array binding signal (z-score) (GalNAc(b1-4)Gal(b1-4)Glc): 0.032
glycan array binding signal (z-score) (GalNAc(b1-4)GlcNAc): 1.86
glycan array binding signal (z-score) [9]: -0.422
glycan array binding signal (z-score) [10]: -0.397
glycan array binding signal (z-score) [11]: -0.514
glycan array binding signal (z-score) (GalNAc(b1-4)GlcNAc6S): -0.439
glycan array binding signal (z-score) (GalNAc(b1-6)GalNAc): 0.164
glycan array binding signal (z-score) (GalNAc3S(b1-4)GlcNAc): -0.26
glycan array binding signal (z-score) (GalNAc3S(b1-4)GlcNAc3S): -0.209
